{
  "source": "paper PMC4336329",
  "about": "(PLoS ONE, 2015)",
  "note": "Among all 310,000 compounds or so, about 2,200 (0.71%) showed an effect of 50% or more. Effects have a minus sign here. The list shows a part of the results.",
  "data": [
    {"molecular_target": "human ether-à-go-go-related gene (hERG) potassium channel (human, UniProt Q12809)", "sequence (Q12809 whole entry, looked up)": "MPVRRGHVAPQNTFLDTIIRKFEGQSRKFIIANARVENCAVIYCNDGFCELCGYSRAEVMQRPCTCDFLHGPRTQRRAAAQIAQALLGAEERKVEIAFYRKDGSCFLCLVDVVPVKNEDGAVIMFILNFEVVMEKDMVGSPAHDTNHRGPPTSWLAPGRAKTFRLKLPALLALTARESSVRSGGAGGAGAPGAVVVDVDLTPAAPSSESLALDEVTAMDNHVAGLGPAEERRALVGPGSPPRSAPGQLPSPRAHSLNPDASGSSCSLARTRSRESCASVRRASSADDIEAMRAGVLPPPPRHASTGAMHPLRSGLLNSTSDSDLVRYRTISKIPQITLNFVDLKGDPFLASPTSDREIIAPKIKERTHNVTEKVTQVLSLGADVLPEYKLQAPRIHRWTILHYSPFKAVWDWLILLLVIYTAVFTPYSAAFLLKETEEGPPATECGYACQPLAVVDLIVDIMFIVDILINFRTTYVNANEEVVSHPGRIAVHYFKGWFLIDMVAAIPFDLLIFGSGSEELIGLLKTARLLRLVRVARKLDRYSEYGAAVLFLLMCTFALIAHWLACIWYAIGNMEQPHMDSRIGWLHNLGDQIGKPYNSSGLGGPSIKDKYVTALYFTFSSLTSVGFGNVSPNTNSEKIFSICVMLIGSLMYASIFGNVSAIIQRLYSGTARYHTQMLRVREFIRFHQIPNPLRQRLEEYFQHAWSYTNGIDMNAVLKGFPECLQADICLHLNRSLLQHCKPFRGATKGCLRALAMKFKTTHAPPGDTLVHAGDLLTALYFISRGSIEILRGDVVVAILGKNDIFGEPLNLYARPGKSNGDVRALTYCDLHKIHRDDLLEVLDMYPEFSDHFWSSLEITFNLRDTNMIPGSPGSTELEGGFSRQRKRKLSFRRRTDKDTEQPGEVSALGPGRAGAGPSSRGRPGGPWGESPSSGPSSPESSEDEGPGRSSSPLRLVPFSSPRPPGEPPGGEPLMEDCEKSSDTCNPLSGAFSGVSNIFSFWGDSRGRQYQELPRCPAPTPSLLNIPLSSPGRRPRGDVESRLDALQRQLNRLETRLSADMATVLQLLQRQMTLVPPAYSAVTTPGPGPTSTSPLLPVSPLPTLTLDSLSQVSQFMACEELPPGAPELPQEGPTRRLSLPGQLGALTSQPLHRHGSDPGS", "assay": "primary screen, population patch clamp on CHO cells stably expressing hERG", "units": {"hERG current change (%, negative = inhibition) at 1uM": "%"}, "values": [
      {"smiles": "COc1ccc(/C=C\\c2cc(OC)c(OC)cc2CC[N+](C)(C)C)cc1OC.[I-]", "hERG current change (%, negative = inhibition) at 1uM": 15.9},
      {"smiles": "CS(=O)(=O)N1CCc2cc(C(=O)Nc3ccc(Br)cc3)ccc21", "hERG current change (%, negative = inhibition) at 1uM": 14.2},
      {"smiles": "CC1=C(C(=O)OC2CCCCC2)C(c2ccc(N(C)C)cc2)NC(=O)N1", "note": "(stereo not drawn)", "hERG current change (%, negative = inhibition) at 1uM": 13.9},
      {"smiles": "COc1cccc(C2C3=C(CC(C)(C)CC3=O)Nc3cc4c(cc32)OCO4)c1", "note": "(stereo not drawn)", "hERG current change (%, negative = inhibition) at 1uM": 1.65},
      {"smiles": "CCn1c(COc2ccc(=O)n(-c3ccccc3)n2)nnc1SCc1cccc(OC)c1", "hERG current change (%, negative = inhibition) at 1uM": -3.36},
      {"smiles": "CCCCN(Cc1ccccc1)C(=O)C1CCC(=O)N(CCc2ccccn2)C1", "note": "(stereo not drawn)", "hERG current change (%, negative = inhibition) at 1uM": 4.02},
      {"smiles": "CN(C)c1ccc(NC(=O)c2sc(SCC(=O)Nc3nccs3)nc2N)cc1", "hERG current change (%, negative = inhibition) at 1uM": 6},
      {"smiles": "Cc1ccc(NC(=O)COC(=O)c2ccc3c(c2)NC(=O)C2CCCN32)cc1", "note": "(stereo not drawn)", "hERG current change (%, negative = inhibition) at 1uM": -5.26},
      {"smiles": "CCc1ccc(C(CC(=O)c2ccc(Cl)cc2)C(=O)O)cc1", "note": "(stereo not drawn)", "hERG current change (%, negative = inhibition) at 1uM": 20},
      {"smiles": "COc1ccc(N(CC(=O)Nc2ccc(S(=O)(=O)N3CCCCC3)cc2)S(C)(=O)=O)cc1OC", "hERG current change (%, negative = inhibition) at 1uM": 0.357},
      {"smiles": "O=C(Nc1ccc2c(c1)CCC2)C1CCN(c2c3c(nc4ncnn24)CCC3)CC1", "hERG current change (%, negative = inhibition) at 1uM": 2.36},
      {"smiles": "O=C(Nc1ccccc1Sc1ccccc1)c1ccccc1", "hERG current change (%, negative = inhibition) at 1uM": 10.8},
      {"smiles": "COc1cc(/C=C/C(=O)OCC(=O)Nc2ccc(Cl)cn2)ccc1O", "hERG current change (%, negative = inhibition) at 1uM": 6.01},
      {"smiles": "CCc1cc(C(=O)OC)c(N2C(=O)C3C4C=CC(C4)C3C2=O)s1", "note": "(stereo not drawn)", "hERG current change (%, negative = inhibition) at 1uM": 22.2},
      {"smiles": "COc1cccc(CN2CC(C(=O)N3CCCCCCC3)CCC2=O)c1", "note": "(stereo not drawn)", "hERG current change (%, negative = inhibition) at 1uM": 9.63},
      {"smiles": "CC(C)=CCC/C(C)=C/C=N/NC(=O)c1cccc([N+](=O)[O-])c1", "hERG current change (%, negative = inhibition) at 1uM": 0.0005},
      {"smiles": "CSc1ncccc1C(=O)NC(C)CCc1ccccc1", "note": "(stereo not drawn)", "hERG current change (%, negative = inhibition) at 1uM": 11.5},
      {"smiles": "COC(CNC(=O)c1ccc2c(c1)nc(C)n2-c1cc(C)cc(C)c1)OC", "hERG current change (%, negative = inhibition) at 1uM": 9.08},
      {"smiles": "Br.c1ccc(-c2ccccc2OCc2nnc3n2CCC3)cc1", "hERG current change (%, negative = inhibition) at 1uM": 9.06},
      {"smiles": "COc1ccc(OC)c(C(C(=O)NC2CCCCC2)N(C(=O)c2ccccn2)c2cccnc2)c1", "note": "(stereo not drawn)", "hERG current change (%, negative = inhibition) at 1uM": 11.6},
      {"smiles": "CC(C)c1ccc(NC(=O)c2ccc(NS(C)(=O)=O)cc2)cc1", "hERG current change (%, negative = inhibition) at 1uM": 14},
      {"smiles": "COc1ccccc1-c1nc(C#N)c(N2CCN(C(=O)c3ccco3)CC2)o1", "hERG current change (%, negative = inhibition) at 1uM": 8.37},
      {"smiles": "CNc1nc(N)c(C(=O)C(C)(C)C)s1", "hERG current change (%, negative = inhibition) at 1uM": -3.7},
      {"smiles": "N#Cc1ccccc1NC(=O)CN1CCN(c2ccccn2)CC1", "hERG current change (%, negative = inhibition) at 1uM": -4.25}
    ]}
  ]
}
